# The other results are listed elsewhere or left out. Further columns of the screen follow, without active or inactive calls.
# Tests used:
# Assay in all cases: Primary Screen for Target Class Profiling of Small Molecule Inhibitors of Methyltransferases
# [1] = target: Glycine N-methyltransferase (Homo sapiens) (UniProt Q14749); settings: purified enzyme, MTase-Glo SAH luminescence; measured here: GNMT inhibition; at 40 µM; stronger effect = lower value
# Description: (§1) PI: Matthew D. Hall Ph.D. and Quinlin M. Hanson Ph.D.
# (§2) National Center for Advancing Translational Sciences (NCATS)
# (§3) National Institute of Health (NIH), Rockville, MD
# (§4) Target class profiling (TCP) is a chemical biology approach amenable to investigating understudied biological targets. TCP is achieved by developing a generalizable assay platform and applying it to screen a curated set of compound libraries against representative members of a target class. Small molecule methyltransferases (SMMTase) are a subclass of methyltransferase that act on metabolites to modulate signaling pathways, metabolize xenobiotics, or balance the available methyl pool. We screened four curated libraries totaling 27,574 unique compounds against the SMMTases nicotinamide N-methyltransferase (NNMT), phenylethanolamine N-methyltransferase (PNMT), histamine N-methyltransferase (HNMT), glycine N-methyltransferase (GNMT), catechol O-methyltransferase (COMT), and guanidinoacetate N-methyltransferase (GAMT). The data generated by this TCP can be leveraged for informed tool molecule development. For example, in the associated publication we identified a chemotype of HNMT-selective inhibitors. Additionally, we identified a putative SMMTase-selective inhibitor with potential as a tool molecule for studying broader methyltransferase biology.
# (§5) High-through put screening assays were developed at the National Center for Advancing Translational Science (NCATS) for the enzymes NNMT, PNMT, HNMT, GNMT, COMT, and GAMT. Enzymatic activity was measured as a function of SAM cofactor conversion using the MTase Glo kit (Promega) for all enzymes. All assays were performed in 1536-well format with substrates and SAM concentrations at KM values. Enzyme concentration and assay timing were optimized for 10-20% SAM conversion. Initial screening of 27,574 compounds was done as single-point assays using the highest compound concentration (40 uM). […] These compounds were replated in 11-point dose response and assayed against NNMT, PNMT, HNMT, GNMT, COMT, GAMT, and a counter-assay. The IC50 and efficacy (maximal response) values were determined for each dose-response curve. These values are also accounted for in the area under the curve (AUC) values.
# (§6) PROTOCOL TABLE (as described by Inglese J, Shamu CE and Guy RK. 2007)
# (§7) SEQUENCE No. (e.g., 1, 2, 3, etc.); […] (e.g., Cells, Incubation, Reagent, etc.); VALUE; DESCRIPTION.
# (§8) 1; Reagent; 2 uL; SMMTase Enzyme (2x) in reaction buffer, columns 1- 48.
# (§9) 2; Reagent; 1 uL; SAM (4x) in reaction buffer, columns 1-48.
# (§10) 3; Controls; 23 nL; DMSO in column 4; sinefungin in DMSO (0 uM - 40 uM) in 7-point 1:2 dilution series (n = 2) in column 2.
# (§11) 4; Compounds; 23 nL; Columns 5-48.
# (§12) 5; Reagent; 1 uL; Substrate (4x) in reaction buffer, columns 2-48.
# (§13) 6; Time; 20-30 min; Incubation.
# (§14) 7; Reagent; 1 uL; MTase-Glo reagent (5X), columns 1-48.
# (§15) 8; Time; 30 min; Incubation.
# (§16) 9; Reagent; 5 uL; MTase-Glo Detection reagent, columns 1-48.
# (§17) 10; Time; 30 min; Incubation, luminescence evolution.
# (§18) 11; Detection; Luminescence; ViewLux uHTS Microplate Imager (PerkinElmer).
# (§19) NOTES (numbers refer to Sequence numbers above)
# (§20) 1, 2, 5. White Medium Binding Greiner 1536-well plates (Cat #789175-F, Greiner Bio-One, Monroe, NC); Reaction buffer: 50 mM Tris, pH 8.0, 3 mM MgCl2, 1 mM EDTA, 50 mM NaCl, 1 mM DTT, and 0.1 mg/mL BSA. Evaporation was prevented by covering assay plates with metal lids containing holes to allow gas diffusion.
# (§21) 1. Six SMMTase were profiled: HNMT, GNMT, PNMT, COMT, NNMT, GAMT
# (§22) 5. The corresponding substrate was used for each enzyme: HNMT - 5.3 uM Histamine; GNMT - >500 uM Glycine; PNMT - 16.2 uM Norephinephrine; COMT - 13.7 uM Norephinephrine; NNMT - 3.8 uM Nicotinamide; GAMT - 2.5 uM Guanidinoacetate.6, 8, 10. Room temperature
# (§23) 6. Final reaction conditions: 10 nM COMT, 5 uM SAM, 15 uM norepinephrine, 50 mM Tris, pH 8.0, 3 mM MgCl2, 1 mM EDTA, 50 mM NaCl, 1 mM DTT, and 0.1 mg/mL BSA; refer to tables 2 and S1 for specific timing.
# 8. […]
# [2] = target: Guanidinoacetate N-methyltransferase (Homo sapiens) (UniProt Q14353); settings: purified enzyme, MTase-Glo SAH luminescence; measured here: GAMT inhibition; at 40 µM; stronger effect = lower value
# Description: as §1, §2, §3, §4, §5, §6, §7, §8, §9, §10, §11, §12, §13, §14, §15, §16, §17, §18, §19, §20, §21, §22, §23
# 8. […]
# [3] = target: Histamine N-methyltransferase (Homo sapiens) (UniProt P50135); settings: purified enzyme, MTase-Glo SAH luminescence; measured here: HNMT inhibition; at 40 µM; stronger effect = lower value
# Description: as §1, §2, §3, §4, §5, §6, §7, §8, §9, §10, §11, §12, §13, §14, §15, §16, §17, §18, §19, §20, §21, §22, §23
# 8. […]
# [4] = target: Nicotinamide N-methyltransferase (Homo sapiens) (UniProt P40261); settings: purified enzyme, MTase-Glo SAH luminescence; measured here: NNMT inhibition; at 40 µM; stronger effect = lower value
# Description: as §1, §2, §3, §4, §5, §6, §7, §8, §9, §10, §11, §12, §13, §14, §15, §16, §17, §18, §19, §20, §21, §22, §23
# 8. […]
# [5] = target: Phenylethanolamine N-methyltransferase (Homo sapiens) (UniProt P11086); settings: purified enzyme, MTase-Glo SAH luminescence; measured here: PNMT inhibition; at 40 µM; stronger effect = lower value
# Description: as §1, §2, §3, §4, §5, §6, §7, §8, §9, §10, §11, §12, §13, §14, §15, §16, §17, §18, §19, §20, §21, §22, §23
# 8. […]
# % is scaled to controls: 0 for no effect and ±100 for the full control effect.
Structure (SMILES),"activity change, negative = inhibition [1] [%]","activity change, negative = inhibition [2] [%]","activity change, negative = inhibition [3] [%]","activity change, negative = inhibition [4] [%]","activity change, negative = inhibition [5] [%]"
COc1cc(C(=O)OC[C@@]2(O)CO[C@@H](O[C@H]3[C@H](Oc4ccc(O)cc4)O[C@H](CO)[C@@H](O)[C@@H]3O)[C@@H]2O)cc(OC)c1O,-0.758,-6.24,-1.08,-16.2,1.26
CC(NC(=O)CCc1nnc2n(Cc3ccccc3)c(=O)c3ccccc3n12)c1ccccc1 (stereo not given),-7.22,0.121,1.69,7.98,2.42
CCOc1ccccc1NC(=O)N1CCn2c(C)ccc2C1C(C)C (stereo not given),13.1,0,-2.89,-1.78,2.7
CC1CCCC(NC(=O)C2(C)Cn3c(cc4sccc43)C(=O)N2Cc2cccc(F)c2)C1C (stereo not given),5.65,0,6.45,2.54,1.8
COC(=O)N1CCN(Cc2cc(=O)c3cc(F)ccc3[nH]2)CC1,-5.94,-14.5,-3.45,-9.02,-6.13
C=C(C(=O)O)C1CC(O)C2(C)CCCC(C)(O)C2C1 (stereo not given),0,5.94,8.85,-5.61,3.67
Cc1ccc(CNC(=O)N2Cc3c(sc4c3CCCC4)-n3cccc3C2c2ccccc2)cc1 (stereo not given),-7.77,-6.81,0.575,-11.8,-5.45
CCCn1c(=O)c2ccc(C(=O)NC(C)CC)cc2n2c(=O)n(CC(=O)Nc3cccc(C)c3)nc12 (stereo not given),-0.69,4.65,2.04,1.31,0.525
COc1ccccc1CNC(=O)C1c2c(n(C)c3ccccc23)SCC(=O)N1c1cc(F)ccc1F (stereo not given),15.6,0.63,2.71,7.66,11.2
CC1(C)CC[C@]2(C(=O)O[C@@H]3O[C@H](CO)[C@@H](O)[C@H](O)[C@H]3O)CC[C@]3(C)C(=CCC4[C@@]5(C)C[C@@H](O)[C@H](O)C(C)(C)C5CC[C@]43C)C2[C@@H]1O (stereo not given in full),-5.13,2.01,5.36,-10.4,0.521
COc1cccc(-c2cn3c(n2)N(C(=O)Cc2cccs2)CCC3)c1,-5.27,-8.66,-35.9,-16.9,-11.9
CC(C)NC(=O)c1ccc2c(=O)n(Cc3ccccc3)c3nnc(SCC(N)=O)n3c2c1,7.28,0.452,11.7,12.8,10.2
N#C/C(=C\c1ccc(O)c(O)c1)C(=O)c1ccc(O)c(O)c1,-39.4,-7.76,-11.2,-17.2,-10.1
NC(=O)C(O[C@@H]1O[C@H](CO[C@@H]2O[C@H](CO)[C@@H](O)[C@H](O)[C@H]2O)[C@@H](O)[C@H](O)[C@H]1O)c1ccccc1 (stereo not given in full),0,2.11,2.7,-9.48,4
CC(=O)Nc1cccc(-c2cc3c(cn2)CN(Cc2ccccc2)CCN3)c1,-10.3,-5.57,-93.5,-40.7,-39.1
CC(C)CCNC(=O)C1(C)Cn2nc(C(=O)NCCc3cccs3)cc2C(=O)N1C (stereo not given),0.913,0,3.59,2.56,0.118
CCCNC(=O)C1CCc2ncc(-c3ccc(OC)cc3)n2C1 (stereo not given),-1.27,-2.03,-6.15,-1.66,1.12
COc1ccc(CN2CCc3nc(N4CCN(C)CC4)[nH]c(=O)c3CC2)c(OC)c1OC,-4.45,-4.51,-2.47,-6.03,12
Cc1ccc(CNC(=O)CCc2nnc3n(Cc4ccc(Cl)cc4)c(=O)c4ccccc4n23)cc1,-3.87,1.41,7.33,9.76,-0.189

# Reference: PubChem BioAssay AID1745853 (National Center for Advancing Translational Sciences (NCATS), 2022)
